The name of at least one read-out is uncertain. Some results were stated once for a whole list of compounds, not compound by compound.
Experiments:
Format in all cases: cell-based
PPARα (GAL4-hPPARα LBD) = molecular target: T1, PPARα (GAL4-hPPARα LBD) (Homo sapiens, UniProt Q07869); test: PPARα transactivation activity (GAL4 chimera luciferase reporter in CV-1 cells)
T1 construct: Receptor expression plasmid (GAL4-hPPARα, LBD GAL4-hPPARγ LBD, GAL4-hPPARδ LBD); expressed in transfected cells; host or cells: CV-1 cells
T1 sequence (Q07869 239-466 limits assumed): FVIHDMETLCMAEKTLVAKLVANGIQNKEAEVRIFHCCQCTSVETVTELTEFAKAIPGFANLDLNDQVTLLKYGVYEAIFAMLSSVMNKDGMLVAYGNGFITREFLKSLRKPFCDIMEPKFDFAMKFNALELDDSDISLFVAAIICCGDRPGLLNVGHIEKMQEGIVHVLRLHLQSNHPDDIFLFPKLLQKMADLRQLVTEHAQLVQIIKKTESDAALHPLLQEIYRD

PPARγ (GAL4-hPPARγ LBD) = molecular target: T2, PPARγ (GAL4-hPPARγ LBD) (Homo sapiens, UniProt P37231); test: PPARγ transactivation activity (GAL4 chimera luciferase reporter in CV-1 cells)
T2 construct: Receptor expression plasmid (GAL4-hPPARα, LBD GAL4-hPPARγ LBD, GAL4-hPPARδ LBD); expressed in transfected cells; host or cells: CV-1 cells
T2 sequence (P37231 238-503 limits assumed): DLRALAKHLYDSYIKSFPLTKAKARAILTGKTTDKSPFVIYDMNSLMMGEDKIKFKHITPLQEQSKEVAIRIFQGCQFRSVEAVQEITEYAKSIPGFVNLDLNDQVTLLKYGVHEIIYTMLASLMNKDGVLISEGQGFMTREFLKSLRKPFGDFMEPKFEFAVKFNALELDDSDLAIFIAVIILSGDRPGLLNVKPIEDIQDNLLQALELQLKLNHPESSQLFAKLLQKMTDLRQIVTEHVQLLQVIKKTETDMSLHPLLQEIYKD

PPARδ (GAL4-hPPARδ LBD) = molecular target: T3, PPARδ (GAL4-hPPARδ LBD) (Homo sapiens, UniProt Q03181); test: PPARδ transactivation activity (GAL4 chimera luciferase reporter in CV-1 cells); conditions: for PPARδ transactivation activity / activating effect (in words): summary statements on Tables 8 and 9
T3 construct: A chimeric receptor expression plasmid (GAL4-hPPARδ LBD), a reporter plasmid (UASx4-TK-LUC); expressed in transfected cells; host or cells: CV-1 cells
T3 sequence (Q03181 211-439 limits assumed): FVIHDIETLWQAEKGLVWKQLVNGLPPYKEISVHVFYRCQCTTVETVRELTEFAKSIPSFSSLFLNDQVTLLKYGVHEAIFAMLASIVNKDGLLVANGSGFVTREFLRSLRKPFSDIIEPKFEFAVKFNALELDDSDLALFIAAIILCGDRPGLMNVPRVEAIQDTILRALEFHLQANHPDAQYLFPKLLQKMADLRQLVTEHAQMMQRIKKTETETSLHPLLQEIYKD
Method: A chimeric receptor expression plasmid (GAL4-hPPARδ LBD), a reporter plasmid (UASx4-TK-LUC) and β-galactosidase (β-GAL) are transfected into CV-1 cells by utilizing a lipofection reagent DMRIE-C (Life Technologies).
(1) Measurement of PPARα, γ, δ Transactivation Activity
CV-1 cells were obtained from Tohoku University Aging Medical Laboratory, Medical Cell Collection Center. All test compounds were dissolved in dimethylsulfoxide (DMSO). Final concentration of DMSO was 0.1%.
CV-1 cells were seeded in 24 well culture plates at 2×10^5 cells per well, and cultured for 24 hours OPTI-MEM I Reduced Serum Medium (Life Technologies, 500 μL/well) containing 4%-fetal bovine serum (FBS). After washing with OPTI-MEM, transfection mixture (250 μL/well) containing 0.03 μg of GAL4-hPPARδ LBD, 0.25 μg of UASx-4-TK-LUC, 0.35 μg of βGAL, and 2 μL of lipofection reagent, DMRIE-C (Life Technologies) were added. The cells were incubated for 5 hours at 37° C.
The cells were washed and incubated for 40 hours in the presence of the test compound (final concentration was 10^−7M or 10^−6M)
The culture medium was removed and the cells were washed with PBS twice. A solubilizing buffer (100 μL/well) containing 25 mM Tris-PO4 (pH 7.8), 15% v/v glycerol, 2% CHAPS, 1% Lecithin, 1% BSA, 4 mM EGTA (pH 8.0), 8 mM MgCl2, 1 mM DTT was added. After the incubation for 10 minutes at room temperature, a portion (20 μL) of the solution was transferred into a 96-well plate. Subsequently, 100 μL of luciferase substrate solution (Piccagene: available from Nippon Gene Co., Ltd.) was added, and a luminous intensity per one second (luciferase activity) was measured using a microluminoreader (Type MLR-100, Corona Electrics Co., Ltd.). Each luciferase activity was corrected by the transfection efficiency which was calculated from β-galactosidase activity. The assay method of β-galactosidase activity was as follows: A portion (50 μL) of the solubilized sample was transferred into another 96-well plate; 100 μL of ONPG (2-nitrophenyl-β-galactopyranoside) solution was added and incubated for 5 minutes at room temperature. 50 μL of a reaction stopping solution (1M sodium carbonate solution) was added. Then the absorbance at 414 nm was measured.

[1] = compound at 10^−6 M (value in parentheses)
[2] = compound at 10^−7 M (value without parentheses)
[3] = compound at 10^−7 M, CV-1 cells, 40 hours, positive control 10^−4 M WY-14643 = 100%
[4] = compound at 10^−7 M, CV-1 cells, 40 hours, positive control 10^−5 M Rosiglitazone = 100%
[5] = compound at 10^−7 M, CV-1 cells, 40 hours, positive control 10^−4 M L-165041 = 100%

SMILES | Relative activity for PPAR transactivation, α (PPARα (GAL4-hPPARα LBD); [1]) | Relative activity for PPAR transactivation, γ (PPARγ (GAL4-hPPARγ LBD); [1]) | Relative activity for PPAR transactivation, δ (PPARδ (GAL4-hPPARδ LBD); [1]) | PPARδ transactivation activity / activating effect (in words) (PPARδ (GAL4-hPPARδ LBD)) | further results
Cc1cc(C(=O)CCc2nc(-c3ccc(Cl)cc3Cl)sc2C(C)C)ccc1OC(C)(C)C(=O)O [Example 40, 2-[4-[3-[2-(2,4-Dichlorophenyl)-5-isopropyl-4-thiazolyl]propionyl]-2-methylphenoxy]-2-methylpropionic acid] | (22) % of control | (3) % of control | (72) % of control | potent PPARδ transactivation activities | 
Cc1cc(C(=O)CCc2nc(-c3ccc(Cl)cc3Cl)oc2C(C)C)ccc1OC(C)(C)C(=O)O [Example 1, 2-[4-[3-[2-(2,4-Dichlorophenyl)-5-isopropyl-4-oxazolyl]propionyl]-2-methylphenoxy]-2-methylpropionic acid] |  |  |  |  | Relative activity for PPAR transactivation, α (PPARα (GAL4-hPPARα LBD); compound at 10^−6 M, CV-1 cells, 40 hours, positive control 10^−4 M WY-14643 = 100%): 76 % of control; Relative activity for PPAR transactivation, γ (PPARγ (GAL4-hPPARγ LBD); compound at 10^−6 M, CV-1 cells, 40 hours, positive control 10^−5 M Rosiglitazone = 100%): 10 % of control; Relative activity for PPAR transactivation, δ (PPARδ (GAL4-hPPARδ LBD); compound at 10^−6 M, CV-1 cells, 40 hours, positive control 10^−4 M L-165041 = 100%): 84 % of control
Cc1ccc(-c2nc(C(C)C)c(CCC(=O)c3ccc(OC(C)(C)C(=O)O)c(C)c3)s2)cc1 [Example 50, 2-[4-[3-[4-Isopropyl-2-(4-methylphenyl)-5-thiazolyl]propionyl]-2-methylphenoxy]-2-methylpropionic acid] |  |  |  | potent PPARδ transactivation activities | Relative activity for PPAR transactivation, α (PPARα (GAL4-hPPARα LBD); [2]): 104 % of control; Relative activity for PPAR transactivation, γ (PPARγ (GAL4-hPPARγ LBD); [2]): 50 % of control; Relative activity for PPAR transactivation, δ (PPARδ (GAL4-hPPARδ LBD); [2]): 30 % of control
Cc1cc(C(=O)CCc2nc(-c3ccc(Cl)cc3Cl)oc2C(C)C)ccc1OCC(=O)O [Example 2, [4-[3-[2-(2,4-Dichlorophenyl)-5-isopropyl-4-oxazolyl]propionyl]-2-methylphenoxy]acetic acid] |  |  |  |  | Relative activity for PPAR transactivation, α (PPARα (GAL4-hPPARα LBD); [3]): 0 % of control; Relative activity for PPAR transactivation, γ (PPARγ (GAL4-hPPARγ LBD); [4]): 2 % of control; Relative activity for PPAR transactivation, δ (PPARδ (GAL4-hPPARδ LBD); [5]): 61 % of control
CC(C)c1oc(-c2ccc(Cl)cc2Cl)nc1CCC(=O)c1ccc(OCC(=O)O)c(Cl)c1 [Example 35, [4-[3-[2-(2,4-Dichlorophenyl)-5-isopropyl-4-oxazolyl]propionyl]-2-chlorophenoxy]acetic acid] | (0) % of control | (1) % of control | (71) % of control | potent PPARδ transactivation activities | 
CC(C)c1oc(-c2ccc(Cl)cc2Cl)nc1CCC(=O)c1ccc(OC(C)(C)C(=O)O)c(Cl)c1 [Example 36, 2-[4-[3-[2-(2,4-Dichlorophenyl)-5-isopropyl-4-oxazolyl]propionyl]-2-chlorophenoxy]-2-methylpropionic acid] | (14) % of control | (5) % of control | (92) % of control | potent PPARδ transactivation activities | 
C=CCc1cc(C(=O)CCc2nc(-c3ccc(Cl)cc3Cl)oc2C(C)C)ccc1OCC(=O)O [Example 5, [2-Allyl-4-[3-[2-(2,4-dichlorophenyl)-5-isopropyl-4-oxazolyl]propionyl]phenoxy]acetic acid] |  |  |  |  | Relative activity for PPAR transactivation, α (PPARα (GAL4-hPPARα LBD); [3]): 1 % of control; Relative activity for PPAR transactivation, γ (PPARγ (GAL4-hPPARγ LBD); [4]): 6 % of control; Relative activity for PPAR transactivation, δ (PPARδ (GAL4-hPPARδ LBD); [5]): 75 % of control
Cc1cc(C=CCc2nc(-c3ccc(Cl)cc3Cl)oc2C(C)C)ccc1OCC(=O)O [Example 9, [4-[3-[2-(2,4-Dichlorophenyl)-5-isopropyl-4-oxazolyl]-1-propenyl]-2-methylphenoxy]acetic acid] | (0) % of control | (4) % of control | (84) % of control | potent PPARδ transactivation activities | 

Reference: patent US7648999B2, “Activator for peroxisome proliferator-activated receptor δ” (Nippon Chemiphar Co., Ltd., priority 2007, dated 2010)
